Measured values: article PMC12136788
The other results are listed elsewhere or left out.

T1: UNK ZnF1-3 (human, UniProt Q9C0B0 31-174)
T1 sequence: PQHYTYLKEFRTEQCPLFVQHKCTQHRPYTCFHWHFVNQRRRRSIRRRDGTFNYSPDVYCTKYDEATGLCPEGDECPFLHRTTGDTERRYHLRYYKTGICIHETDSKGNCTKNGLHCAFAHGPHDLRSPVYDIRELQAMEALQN

B1: chr12:48362563:48362564:+_ENSG00000134291_ENST00000256686|hu_hu|hu_hu_hu_mus_False|8_38 (ssRNA)
RNA: GGGAGUUCUACAGUCCGACGAUCUCCGUCAAGCCCUUCGAUAGACCCUUGCGGGGGAAACUGUAAUCACUUUGUAUGGGGAAGGAAAAGAAACGCCAACACACUUUCAAAAAGCGGGGGUGGGGUGUCCCAGGCCUGGGAGGUCAACAGAGGAUUGAGCAUCA
B2: chr1:225611761:225611762:-_ENSG00000143815_ENST00000272163|hu_mus|hu_hu_hu_mus_True|1_8 (ssRNA)
RNA: GGGAGUUCUACAGUCCGACGAUCCCAGGCCAUCGGCCUCUGACCACUUCACCCUCAACAAACUUCCUACUUGGCAUUUUCUAAAAUUAGUCUGGCCGCGCUCCGGCGGGAACUCCAGCCACUCCAGGGAGAAUAGUCGCACAGCAACAGAGGAUUGAGCAUCA
B3: chr16:36052476:36052477:-_ENSMUSG00000003955_ENSMUST00000004057|mus_hu|motif|central (ssRNA)
RNA: GGGAGUUCUACAGUCCGACGAUCUUCAAAUCAGAGCUUCUGGUAAGCCUUAGAGAUGAGGAAACAUCUCUUUCACAUAACCGGAAACAGCUUCUCAUAAUUGCACUGGCAAACAGUUCUUAUAAGAUACUUAAAUCUUUGCGACAACAGAGGAUUGAGCAUCA
B4: chr2:202488911:202488912:-_ENSG00000155755_ENST00000286196|hu_mus|hu_hu_hu_mus_False|78_98 (ssRNA)
RNA: GGGAGUUCUACAGUCCGACGAUCAUUGAAACAUUUUCAUAAUAUUGCAGUAGCAUUCAGUAUUAUAGUAACAAAAGCUCAAUUGUAAAUACAUGUAUCUUAUAAAAAUACACUUAAAAACACGAGUGGGGAGCGCAGGCGCCACAACAGAGGAUUGAGCAUCA
B5: chr7:75932113:75932114:+_ENSG00000106211_ENST00000248553|hu_hu|hu_hu_hu_mus_False|28_28 (ssRNA)
RNA: GGGAGUUCUACAGUCCGACGAUCCUGCGACCACUCAUCGGGCAACCGGGGCACCCCGAAAGCUUGAUCGAAGAGGCGGCUGUGUGCAGGGUACCAGUCCCGGAAUGCCCAGCUGGGCGGGCUCCGCAGCAGCGAGAAGGGCACCAACAGAGGAUUGAGCAUCA
B6: 23376950_23377070_1096_CDS_ENSMUSG00000026158_ENSMUST00000027343|mouse|control|control (ssRNA)
RNA: GGGAGUUCUACAGUCCGACGAUCGUGUGUAGAAGUUUGACCAUUGGAGCCCGACGCGGGCAGAGUCGGGGUUUUCUGGGCUUUGCUUCGCUCUGGCAGUUCUUUCUUAGGUGGCCCCCAGAUGAAAUUCUCUGAUGGUGUGUACAACAGAGGAUUGAGCAUCA
B7: 62406522_62406890_269_CDS_ENSG00000089597_ENST00000356638|human|control|control (ssRNA)
RNA: GGGAGUUCUACAGUCCGACGAUCAUCAAUCCUGAACCGAGUCAUGUUCUUUUGAAGCCCCUGAAGCUCUAGCACCAGCAACACCUUGGUGACCUCAUGGAUCAGAUGGACCGUGAGGGAAUCAGGACCAAGCUGUAGAGAGUCCAACAGAGGAUUGAGCAUCA
B8: chr16:94690093:94690094:+_ENSMUSG00000040785_ENSMUST00000117648|mus_hu|mus_mus_mus_hu_True|8_48 (ssRNA)
RNA: GGGAGUUCUACAGUCCGACGAUCGGGCUGGGAUGACGGACACACAGCCUCGAUUCCAGGGGGAAAAAGUCUUAGUCGAUACUAAUUUAAAAAGUAUAAUGAUUUUUGAAAAUCAGAUUACAUCUAUUUGAAUCAUAAAGCAAACAACAGAGGAUUGAGCAUCA
B9: chr4:114257803:114257804:+_ENSG00000145362_ENST00000514960|hu_hu|motif|central (ssRNA)
RNA: GGGAGUUCUACAGUCCGACGAUCGGAAUGGUCAUGGUAAUUGGUUUGUGGAAUUUUCUUCUUCUAGGUUCCAAAGUGACGGUAGGGCUGAAGGUAGCUUUGUUGCCUAGGAUCUUCUUAACCAGCUCACUGUGCAUAGGUUGACAACAGAGGAUUGAGCAUCA
B10: chr1:45868982:45868983:+_ENSMUSG00000025995_ENSMUST00000027139|mus_hu|motif|central (ssRNA)
RNA: GGGAGUUCUACAGUCCGACGAUCAGAAGUGCAGAAUAAAUCUCCUGCAGGCGAGACUGAGAUAUGUUCAAUAGUAGCUCCGGAACGCGGGAGAAACUCCUUAUUCUUCUCUGUUGCAUCGCGCCACUCUACAAGUACAGAUUCCAACAGAGGAUUGAGCAUCA
B11: chr10:126975481:126975482:-_ENSMUSG00000040249_ENSMUST00000049149|mus_hu|FALSE|FALSE (ssRNA)
RNA: GGGAGUUCUACAGUCCGACGAUCCCAGCCCUGGGAACCUCGGUGGGGGCCCUGGAGACAGGGAGGGCCUGUCUGGGAGGGGGGUUGAGCAUGGCCAUCUCAUAGGUGCCCCUGGAGUUGGGGCUGGGGUUUGGGGUGGCCUCCCAACAGAGGAUUGAGCAUCA
B12: chr9:113799110:113799111:+_ENSMUSG00000033392_ENSMUST00000111838|mus_hu|motif|central (ssRNA)
RNA: GGGAGUUCUACAGUCCGACGAUCCAGCAGUACAAACAACCAAUCUUGAAGAUCAUCUUUGUGGACUUGUAUGAAAUCCACGGGAGUCUCCAAAAACAUGCUGAAUACUCUCUUGCCAUGAGGGUCAGCAAACAUUCUUGUGAACAACAGAGGAUUGAGCAUCA
B13: chr2:202488911:202488912:-_ENSG00000155755_ENST00000286196|hu_mus|hu_hu_hu_mus_False|28_98 (ssRNA)
RNA: GGGAGUUCUACAGUCCGACGAUCAUUGAAACAUUUUCAUAAUAUUGCAGUAGCAUUUCAGCAUUAUGUAACAAAAGCUCAAUUGUAAAUACAUGUAUCUUAUAAAAAUAAAAAUACAAACACGAGUGGGGAGCGCAGGCGCCACAACAGAGGAUUGAGCAUCA
B14: chr1:178670160:178670161:-_ENSMUSG00000057335_ENSMUST00000057037|mus_mus|motif|central (ssRNA)
RNA: GGGAGUUCUACAGUCCGACGAUCCUGAGGCCUCGAGUCAACAGACCGACCGUUGUUUCCUUCUGGUGUUUUAGAAUGAACGGAUGGAGGUAUCUUUCGGAAGUUGAGACUUUCAUCAAAAACACGAUCAACCAACUCUUCUCUCAACAGAGGAUUGAGCAUCA
B15: chr4:76721835:76721836:+_ENSG00000138768_ENST00000264904|hu_hu|motif|central (ssRNA)
RNA: GGGAGUUCUACAGUCCGACGAUCUUUGGCUGGGGUUUCUGAGAUGCUCUGGAAUACAACUCAUGUUUGCUAAUAAAUCCGGGUUUCUCUAUGAAAUUCUCUUUGCCAAUCCUCUUCUCAAUCAGUUGUUUUAGCUUCUCUUUCCAACAGAGGAUUGAGCAUCA
B16: chr9:122046571:122046572:+_ENSMUSG00000038145_ENSMUST00000120173|mus_hu|FALSE|FALSE (ssRNA)
RNA: GGGAGUUCUACAGUCCGACGAUCUUGAAAUUUGUUGCUGAACCCAAAGUCUGUCAACUUUACAAGACCUUGUUUUUCAAAGAAGACUACAUUCUCUGGUUUUAAGUCUCUGUGAACCACAUGGAGUUUAUGGCAAUAAGAUAUCAACAGAGGAUUGAGCAUCA
B17: chr8:26941818:26941819:-_ENSMUSG00000031575_ENSMUST00000166078|mus_hu|motif|central (ssRNA)
RNA: GGGAGUUCUACAGUCCGACGAUCACUAGUAGACACAGCACUGCUCUGUUUUUGGUUGUCAUAAGCAGGACCAAUGUUACGGAGGUCCUGAUCCAAAAGUCCAAAUUUGGGGUAAUCUUCUUCUGGAUCUUUACUGCCUGGAUCCAACAGAGGAUUGAGCAUCA
B18: chr2:32640565:32640566:+_ENSG00000115760_ENST00000421745|hu_hu|FALSE|FALSE (ssRNA)
RNA: GGGAGUUCUACAGUCCGACGAUCGCAUGUCCGCAGUCCUACCAACAAAUGAAUUCCGUCAGCACAAGGAGUUAUUGAGUCUAUACAAAGAUUCUCCUCCUCUGCAAACUUUGGCAGCCUCAAGCACUGAACCAAAGUCCCAGGCAACAGAGGAUUGAGCAUCA
B19: chr14:57741442:57741443:+_ENSG00000053770_ENST00000261558|hu_mus|FALSE|FALSE (ssRNA)
RNA: GGGAGUUCUACAGUCCGACGAUCAACUUUCCAGGCUGGCUGUUUUUGCGGCUGAGUCACAGAUACGGAAUUAAUGCUAUUCAGUGAAUUCUGCAAGUUAGCAUCCAAUAAAGUACCCAAAGGACAAGCCUGUAGAAGCAAGUCCAACAGAGGAUUGAGCAUCA
B20: chr12:121861850:121861851:+_ENSG00000170633_ENST00000361234|hu_hu|motif|central (ssRNA)
RNA: GGGAGUUCUACAGUCCGACGAUCCAGCAACAAUGUGGAAACUUACAUUCAUCAAAUGUUAGCAUUUAAAAUAUACAUGACGGAUAAAGUGAACAUUCAGAGGAGCCACUGCUCAGCAUGUUCCAUGUCGGCCACUUGUGGACACAACAGAGGAUUGAGCAUCA
B21: chr3:41268740:41268741:+_ENSG00000168036_ENST00000349496|perfect_dup|motif|central (ssRNA)
RNA: GGGAGUUCUACAGUCCGACGAUCCACUCUGCUUGUGGUCCACAGAAGCUUCUCAUAAGUGUAGGUCCUCAUUAUGUUUACGGAGGCUUGGGGUCCACCACUGGCCAGAAUGAUGAGCUUGCUCUCUUGAUUGCCAUAAGCUAACAACAGAGGAUUGAGCAUCA
B22: 107755969_107762763_258_5pUTR_ENSMUSG00000032582_ENSMUST00000035201|mouse|control|control (ssRNA)
RNA: GGGAGUUCUACAGUCCGACGAUCCAACAUGACUGCUGCAGAAAAAGCUUUCACCCAGUCCGAAAAGGUCCUGUUCUGUUAGCAGAUCGAGAAUCCCCCCACAUCUCUUUCUAUGUCAAGAAAGCUUCAAUAAGUAGAUCUUUUCAACAGAGGAUUGAGCAUCA

Biological target: T1, UNK ZnF1-3
Experiment: nsRBNS (natural sequence RNA bind-n-seq); RBNS binding buffer (assumed for nsRBNS): 25 mM Tris pH 7.5, 150 mM KCl, 3 mM MgCl2, 0.01% Triton X-100, 500 ug/ml BSA, 20 U/ml SUPERase-In, 4 C; UNK is unkempt and MSI1 is Musashi-1; names of the RNAs are library labels; protein concentration not given here; high values mean tight binding

| Binder | binding signal [enrichment R] |
| --- | --- |
| B1 | 2.09 |
| B2 | 1.15 |
| B3 | 0.608 |
| B4 | 0.72 |
| B5 | 0.498 |
| B6 | 0.883 |
| B7 | 1.07 |
| B8 | 0.599 |
| B9 | 0.709 |
| B10 | 0.787 |
| B11 | 1.15 |
| B12 | 0.87 |
| B13 | 1.04 |
| B14 | 1.04 |
| B15 | 0.541 |
| B16 | 0.569 |
| B17 | 0.636 |
| B18 | 0.791 |
| B19 | 0.954 |
| B20 | 1.31 |
| B21 | 1.29 |
| B22 | 0.949 |
